# Experimental data: the supplement of paper PMC11417369
# Some of the results follow.
# Tested on: PfHDP1 homeodomain (GST-tagged)
# Assay: gcPBM binding intensity (ln(normalized median fluorescence intensity)); higher = stronger DNA binding
# Procedure, shortened: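 Binding of GST-tagged P. falciparum DNA-binding domains, expressed in E. coli and used at about 25 μg on average, was carried out for 1 h in 1× PBS containing 1% milk, 0.2 mg/ml BSA, 0.5% salmon testes DNA and 0.03% Triton X-100. The target was an Agilent 4 × 180k array of primer-extended double-stranded 36-bp intergenic genomic probes plus negative controls, read with Alexa488 anti-GST antibody at 488 nm. Binding intensity is the highest Masliner-normalised natural-log median intensity across replicate spots of either probe orientation.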
row,Sequence,gcPBM binding intensity (ln)
1,TATATATATATATTACGTACATAGAACTTTATAAAA [XGTACX_site4485],8.63
2,AATATTTTATTTTGGGTGCAAAAGAATATTATTTCA,9.49
3,ATGGACATCTATTGTTGTACACATTTTCCCATAACA [XGTACX_site5429],6.44
4,GTAGAGCATAATAAAACACACACATACATACATATA [CACACA_site8217],8.67
5,GAATATAAAATATATATATATATATATATATATATA [GTGCAC_negctrl_site425],9.32
6,TTTCAAAAATGAGTTACACACACACGGATATAAATA [CACACA_site7116],6.61
7,GTAAAAAATATGACAAGTACAAGAAAAGAAAAAAGT [XGTACX_site7906],7.02
8,ATAGAACTATATTGCACACATAATATATATATATAT [CACACA_site3189],10.7
9,AAAAGATTTATACATACACACATATTATATTCACAT [CACACA_site3713],6.59
10,TTATAAATATAAAAATGTACAGAAAAAAAAAATAAA [XGTACX_site863],6.81
11,TTATTTTATAATAAAAGTACACAAAAAAAAAAAAAA [XGTACX_site7668],6.44
12,TTATTTCTCTTTTCAGTGCATTTTATAACAAAAAAA [GTGCAC_site9930],8.7
13,ATATATATAATATGCGGTACACATTAATTAAATCAT [XGTACX_site5702],6.81
14,TTATAATATATATACAGTACATATATAAAATAATAT [XGTACX_site5917],6.5
15,TAATATAAAGAAAAGGAACACACAAATATATATATA [CACACA_site8049],8.45
16,AATATATATATATATACACACACACCGATATATATA [CACACA_site8158],7.06
17,TAACAATTAATAAAAGGTACACTTGAATATGCACCA [XGTACX_site2717],10.3
18,TTAATATTTAGACATGCATGCTAATTACTATATATA [TGCATGCA_site27],6.78
19,AATTTTAAGAGCTATACATGCACTTCATAAAAAGTG [TGCATGCA_site180],8.73
20,ATAATAAAAAAAAATGCACACATATATATATATATA [CACACA_site8766],9.5
21,TATGATATAATTATGTGTACACAATTTTTTTTTTTT [XGTACX_site1084],6.55
22,ATATATATTTTATTCACACATAAGATTATAAAACAT [CACACA_site5369],6.48

row,Sequence,gcPBM binding intensity (ln)
1,TGTGTTCAGTATTGCACACACACAACAAAATAAAAA [CACACA_site8017],10.2
2,ATTAATAAGAAATATACACACATGGATAAATACATA [CACACA_site1872],6.54
3,TTTCTTGCTACATGAAGTACACTTTCTATGACTCGT [XGTACX_site5583],6.26
4,TAATTATGCAGACACACACACACACCCAACTAAAAA [CACACA_site2569],7
5,TATTTATTGTGATACTTATATTACTTAATGATTAAA [CACACA_negctrl_site676],6.15
6,ATATATTATATAAAGTGTACAAAAAAAATATATAAA [XGTACX_site8065],7.14
7,CTATTTCATGGACACACACACACAAACAAACATATA [CACACA_site4696],7.02
8,TTATTGCATTGTTTTTATAAAAAAAAAAAAAAAATT [XGTACX_negctrl_site104],6.28
9,CACAATACTTTCATCACACATATATATATATATATA [CACACA_site4677],9.36
10,ACTAAACTAATATGTACACACATATAACATTAATTT [CACACA_site7128],6.62
11,TTTCGTTCATAAAAAAGTACATATGAGCAAAAGGTA [XGTACX_site8936],9.58
12,GAATTAAAATAATACGTACACACATGTATAATACAT [CACACA_site1004],6.72
13,TATATATATATATATAGTACATATTTATATATGAAA [XGTACX_site8488],9.34
14,TTGTTCTATTTAAGTAGTACATACACACACATATAC [XGTACX_site8484],7.01
15,ACATATATATATTCTACACACTTATAATATAATACA [CACACA_site2461],6.83
16,ATTTTTCTTTTTAATACACACAAAAGTGATACAAAC [CACACA_site3923],6.98
17,TTTTTTTGTATTTGTTTATTTAATGATAAAATTAAA [CACACA_negctrl_site225],6.64
18,TGTATTATATATACACAAATATTTATGTGTGTGTTT [XGTACX_negctrl_site475],6.71
19,AAATAATATTTTTTTTTTTTTTTTTTTTTATGTTAT [CACACA_negctrl_site809],6.06
20,TGGTAGTATATCATAGAAATCATTGTATAACAAATA [XGTACX_negctrl_site569],6.19
21,AAAAAAAAAAAAAAAACACACAAATCATAAATAAAT [CACACA_site478],6.58
22,ATAGTCTTAATGACTACACACCTAACTATGCATGCA [CACACA_site5084],6.24

row,Sequence,gcPBM binding intensity (ln)
1,ATACAGTTGCATATGGTGCACGAATAATACACCTAT,10.4
2,ATAGTATCTGGTAGCTGTACGAGTCGTAGAGTGTAG [XGTACX_site2030],7.08
3,TATGTATTTTTTAAGTGTACCTATATATATATATAT [XGTACX_site7934],9.25
4,TGGGAAGGGTGGGAAACTTTATCAAAAACTTATTAC [GTGCAC_negctrl_site16],6.83
5,TATAATAATAATTATTGTACGATTAGGTTAATTCAT [XGTACX_site1984],6.23
6,AGAAAGGTGGTATTAAAAGAATAACCTATGAATAAA [GTGCAC_negctrl_site325],6.45
7,ATAATATATACTATATGTACATATCTTTTCCTCTTT [XGTACX_site5553],6.76
8,TTTTTCATAAAAAAATAAAAAAAATTAACATAGAAA [XGTACX_negctrl_site11],6.34
9,TTTTAGAGTGGTATATATTAATTTTTAATAAAAAAA [CACACA_negctrl_site1652],6.33
10,TGTGCATAAATTTATGCACACATAAAAAAAAAAAAA [CACACA_site8954],11
11,AATAAAAGAAGACAGAGTACACAGGTTGTATTTTCC [XGTACX_site7208],6.36
12,AGGTTTCATTTAGCATGTACATATTATAAAAATTGT [XGTACX_site8448],6.73
13,AAGATTACTTATATATGTACACATAATACAAATGTC [XGTACX_site520],6.39
14,TCTGTTAATATTTATACACACATATATATATATATA [CACACA_site1139],9.27
15,AAAAAATTATACCTTTGTACATAAATAAAATATTAT [XGTACX_site418],6.23
16,ATAACATAAGGAAATACACACATATATAAGTATATA [CACACA_site778],6.43
17,ACCCATTGCTCACGTGCACACATAGAAAAATAATTC [CACACA_site4389],10.7
18,TATGTATATATTTACGCATGCTACTCTATTTTGAGA [TGCATGCA_site990],6.72
19,TTTATATAAATTTATTCACACAACTAATTTTTTAAA [CACACA_site4848],6.5
20,TGATAAATTAAAAATTGTACTATTATAATAATATAT [XGTACX_site6615],6.57
21,ATCAAATAGAGACACACACACCTAAACATAAAAGAA [CACACA_site7321],6.94
22,ACAATAAACATATATACACACACAAAAAAAAAAACA [CACACA_site8033],6.72

row,Sequence,gcPBM binding intensity (ln)
1,CATATATATTTGTTCACACACACACTAATAAAAAAA [CACACA_site8787],6.85
2,TGGAGGAACCTCATATGTACGTATAAATATATATTT [XGTACX_site5603],6.6
3,TTAAAGCACCCATGCACACACACAAAGGAAAAGAAA [CACACA_site233],8.78
4,TTGTGTAAAGGTATTATTGTATTATTCAAAATAAAA [XGTACX_negctrl_site167],6.43
5,AATATATAATATATATGTACTTATATATAAAAGATA [XGTACX_site7635],6.55
6,ATTTATTAATATCCCAGTACTCATGGGGAATAATGA [XGTACX_site4014],5.99
7,GGTAGGGATTATACCACACACACATACACATAAATA [CACACA_site3179],6.8
8,ACTATTAAAATGAATACACACAAATATAAAAATATA [CACACA_site4145],6.43
9,ACGCTACATAAATACGTGCACATCTTTTTGTGTATA [GTGCAC_site9675],9.77
10,AATATAAACAAACACACACACATATATATATATATT [CACACA_site5592],6.92
11,ATAAAAAAAGGACACACACACATATATTTATTTATA [CACACA_site7438],6.81
12,AAAAAAAAAAAAAATAGTACAATACCCAAATATAAC [XGTACX_site6684],6.77
13,ATGTCATATAATAGTACACACATGAAAATATAAATA [CACACA_site3215],6.72
14,TTATATGTATGGAGGTTTTTGTATATAGATATATAG [CACACA_negctrl_site177],6.34
15,CATCTTATATAATCATGTACATATAGAGACTTCTTT [XGTACX_site7685],6.46
16,TTTTTCTTACATGAGTGTACACACTTTTTTTCAGAA [XGTACX_site138],8.48
17,GGGGGAATTTACATGGGTACACATGTATTAAAAAAT [XGTACX_site4130],7.81
18,TTTTGAAAAAGTTGCACACAAAATTTAAAAAAAAAA [CACACA_site1632],9.25
19,TTAAATAGAAATAAGACTAACAATGAACCAAAAAAA [CACACA_negctrl_site991],7
20,TAGGAAAAGAAAAGCACACACATAAATAGATATATA [CACACA_site6382],6.59
21,ATATATATATATATATATATAATTTTTTTTGTTTTT [TGCATGCA_negctrl_site453],9.47
22,TATATTATTAATTAGGGTACAAAAAAAAAATTTTTT [XGTACX_site7762],6.67
